PubChem BioAssay AID2147 (National Center for Advancing Translational Sciences (NCATS), 2009)
The campaign covered roughly 230,000 compounds. About 3,600 (1.6%) were called active. The shares of active, inactive and inconclusive entries below differ from those in the screen. Calls follow the shape of the dose curve; as a rule, active = well fitted inhibition curve with a large enough effect (not every such curve was filed as active); inconclusive = small, poorly fitted or top-dose-only effect, or another doubt; inactive = no such curve, though single readings can be large or run the other way. Potencies beside an inconclusive call are fits to weak or partial responses and may not hold up.

Target: Lysine-specific demethylase 4E (Homo sapiens) (UniProt B2RXH2)
Experiment: qHTS Assay for Inhibitors of Human Jumonji Domain Containing 2E (JMJD2E)
Conditions: JMJD2E catalytic domain, FDH-coupled NADH fluorescence (FDH is formaldehyde dehydrogenase); series mostly up to 57.1 µM; activity change, negative = inhibition: at the top concentration
Also: nearly all actives have a fitted effect of over 50% in size.
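For activity change, negative = inhibition in this document: 0% = wells with enzyme and -100% = buffer wells without enzyme.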
Potency is read from the fitted curve at half-maximal effect; tags tell the direction and shape of the fitted curve.

Sequence of UniProt B2RXH2 (B2RXH2 whole entry, looked up, the tested form may be a part): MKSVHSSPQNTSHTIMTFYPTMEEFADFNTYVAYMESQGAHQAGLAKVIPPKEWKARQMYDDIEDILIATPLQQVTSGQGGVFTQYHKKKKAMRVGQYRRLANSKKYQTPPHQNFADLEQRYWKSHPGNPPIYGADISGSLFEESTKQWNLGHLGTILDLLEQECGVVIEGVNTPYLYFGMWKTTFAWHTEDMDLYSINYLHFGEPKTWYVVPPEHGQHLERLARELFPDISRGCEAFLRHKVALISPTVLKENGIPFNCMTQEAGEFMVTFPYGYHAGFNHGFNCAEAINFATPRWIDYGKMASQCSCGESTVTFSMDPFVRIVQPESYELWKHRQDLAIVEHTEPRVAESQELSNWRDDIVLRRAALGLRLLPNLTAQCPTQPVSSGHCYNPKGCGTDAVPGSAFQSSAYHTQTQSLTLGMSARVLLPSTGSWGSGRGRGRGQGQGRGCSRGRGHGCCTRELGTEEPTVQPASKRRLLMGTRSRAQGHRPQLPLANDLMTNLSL

Which “activity change, negative = inhibition” value does the source give for Cc1ccc(/C=C2\C(=O)Nc3ccccc32)o1 here?
The value was inactive: 2.35%.

Which Potency does the source give for C=CCn1c(SCc2ccccc2Cl)nnc1-c1sc2nc(C)cc(C)c2c1N here?
Its Potency is inconclusive: 22.4 µM [inhibitor, partial curve].

For Cc1cc(/C=N/n2cnnc2)c(C)n1-c1cc(Cl)ccc1Cl, which “activity change, negative = inhibition” value is on record?
Its value is inactive: -19.6%.

Which “activity change, negative = inhibition” value does the source give for O=C(COC(=O)C1CC2C=CC1C2)Nc1ccccc1F (stereo not drawn) here?
Its value is inactive: -20.9%.

Which Potency does the source give for Cn1c(=O)c(=O)n(C)c2cc([N+](=O)[O-])c([N+](=O)[O-])cc21 here?
Its Potency is inconclusive: 35.5 µM [inhibitor, single point].

Which “activity change, negative = inhibition” value does the source give for CC(=O)OCC1=C(C(=O)O)N2C(=O)C(NC(=O)c3ccc(COc4cccc(Cl)c4Cl)o3)C2SC1 (stereo not drawn) here?
Its value is inactive: 5.37%.

COc1cc(/C=N/NC(=S)NC2CC3CCC2C3)ccc1O (stereo not drawn) was tested. Which “activity change, negative = inhibition” value did it give?
Its value is inactive: -9.68%.

For CC(=O)NNc1ncnc2ccccc12, which “activity change, negative = inhibition” value is on record?
Its value is inactive: -10.8%.

Which “activity change, negative = inhibition” value does the source give for O=C(Nc1ccc(F)cc1)N1CCN(C/C=C/c2ccccc2)CC1 here?
Its value is inactive: 0.813%.

With CC1CC(C)(C)NC(=S)N1CC(=O)N1CCN(Cc2ccc3c(c2)OCO3)CC1 (stereo not drawn) as the compound, how does the “activity change, negative = inhibition” value read?
Its value is inactive: -1.17%.

With Cn1c(=O)c2cn(-c3cccc4ccccc34)cc2n(C)c1=O as the compound, how does the Potency read?
The Potency was inconclusive: 35.5 µM [inhibitor, single point].

For CCOc1ccc(C2C=C(c3ccc(C)cc3)Nc3nnnn32)cc1 (stereo not drawn), which Potency is on record?
Its Potency is inconclusive: 35.5 µM [inhibitor, single point].

How did the Potency turn out when Cc1ccc2nc(-c3ccc(NC(=O)CN4CCN(C(=O)c5ccco5)CC4)cc3)sc2c1 was run?
The Potency was inconclusive: 31.6 µM [inhibitor, partial curve].

CCOC(=O)c1cn2nc(Oc3cccc(F)c3)ccc2n1 was tested. Which Potency did it give?
The Potency was inconclusive: 31.6 µM [inhibitor, partial curve].

With Cc1cc(C)cc(NC(=O)c2nccnc2C(=O)O)c1 as the compound, how does the Potency read?
The Potency was inconclusive: 39.8 µM [inhibitor, single point].

How did the “activity change, negative = inhibition” value turn out when O=C(c1cn(-c2ccccc2)nc1-c1cccs1)N1CCOCC1 was run?
Its value is inactive: -2.83%.

How did the Potency turn out when COc1ccc(O)c(C(=O)c2cnn(C(=O)c3cccc(S(=O)(=O)N4CCOCC4)c3)c2)c1 was run?
The Potency was inconclusive: 17.8 µM [inhibitor, single point].

For O=C1CC(c2ccccc2)CC(O)=C1C=Nc1cccc(Cl)c1 (stereo not drawn), which Potency is on record?
Its Potency is inconclusive: 35.5 µM [inhibitor, single point].

COc1ccc(-c2n[nH]c(C)c2-c2ccc(Cl)cc2)c(O)c1 was tested. Which Potency did it give?
Its Potency is inconclusive: 39.8 µM [inhibitor, single point].

For CCCCNC(=O)c1c[nH]c2ccc(S(=O)(=O)N3CCOCC3)cc2c1=O, which Potency is on record?
The Potency was inconclusive: 28.2 µM [inhibitor, single point].

For COc1ccc(Oc2nc3ccccc3n3cccc23)cc1, which Potency is on record?
Its Potency is inconclusive: 35.5 µM [inhibitor, single point].

Which Potency does the source give for COc1ccc(-n2nc3ccc(NS(C)(=O)=O)cc3n2)cc1Cl here?
Its Potency is inconclusive: 15.8 µM [inhibitor, partial curve].

With CC(NC(=O)NC(N)=O)(C(F)(F)F)C(F)(F)F as the compound, how does the “activity change, negative = inhibition” value read?
Its value is inactive: 6.78%.

Which Potency does the source give for O=[N+]([O-])c1ccc(/C=N/NS(=O)(=O)c2ccc(Cl)cc2)o1 here?
The Potency was inconclusive: 22.4 µM [inhibitor, single point].

How did the “activity change, negative = inhibition” value turn out when CCc1ccc(NS(=O)(=O)c2ccc3[nH]cc(C(=O)N(C)Cc4ccco4)c(=O)c3c2)cc1 was run?
The value was inactive: -18.6%.

How did the “activity change, negative = inhibition” value turn out when Cc1cc(/C=N/n2cnnc2)c(C)n1-c1ccc(Cl)cc1Cl was run?
The value was inactive: 4.75%.

For O=S(=O)(Nc1nc2ccccc2nc1N1CCN(c2ccccn2)CC1)c1ccc(Cl)cc1, which Potency is on record?
Its Potency is inconclusive: 20 µM [inhibitor, partial curve].

For CCc1ccc(-c2nc(CN3CCC(C(=O)NCc4ccccc4OC)CC3)c(C)o2)cc1, which “activity change, negative = inhibition” value is on record?
The value was inactive: -5.55%.

With N#CCC(=N)N1CCN(c2ccccc2Cl)CC1 as the compound, how does the Potency read?
The Potency was inconclusive: 25.1 µM [inhibitor, single point].

For O=C(Nc1nc(-c2ccc3ccccc3c2)cs1)C1CCN(S(=O)(=O)c2cccs2)CC1, which Potency is on record?
Its Potency is active: 17.8 µM.

NC(=O)c1cc2cc(Cl)ccc2oc1=O was tested. Which Potency did it give?
The Potency was inconclusive: 31.6 µM [inhibitor, single point].

With Clc1ccc(-c2csc(N/N=C\c3cccnc3)n2)cc1 as the compound, how does the “activity change, negative = inhibition” value read?
The value was inactive: -1.26%.

For O=C(Cn1cc2c(n1)CCCC2)NC1CCCCCC1, which “activity change, negative = inhibition” value is on record?
Its value is inactive: 1.59%.

For COc1ccc(-n2nc(C(=O)NCC(=O)NCc3ccco3)c3ccccc3c2=O)cc1Cl, which Potency is on record?
The Potency was inconclusive: 25.1 µM [inhibitor, partial curve].

With COc1cc(/C=C/C(=O)c2c(O)cc(C)oc2=O)ccc1O as the compound, how does the Potency read?
Its Potency is inconclusive: 39.8 µM [inhibitor, single point].

With Cc1c(C(=O)Nc2ccccc2Cl)oc2ccc(S(=O)(=O)N3CCC4(CC3)OCCO4)cc12 as the compound, how does the Potency read?
Its Potency is inconclusive: 25.1 µM [inhibitor, partial curve].

O=C(CN1CCCCC1)Nc1nnc(-c2ccc([N+](=O)[O-])cc2)s1 was tested. Which “activity change, negative = inhibition” value did it give?
The value was inactive: -2.1%.

For COc1cccc(-c2cc(C(F)(F)F)nc(NCc3ccco3)n2)c1, which Potency is on record?
The Potency was inconclusive: 31.6 µM [inhibitor, single point].

How did the “activity change, negative = inhibition” value turn out when CCCc1ccc(Oc2cn[nH]c2-c2ccc(O)cc2O)cc1 was run?
Its value is inactive: 1.39%.

For CC1CN(S(=O)(=O)c2ccc(C(=O)Nc3sccc3C(N)=O)cc2)CC(C)O1 (stereo not drawn), which Potency is on record?
Its Potency is inconclusive: 0.794 µM [inhibitor, full curve].

For Cc1ccc(-n2nc(C)c3c(C)c(CCC(=O)NCc4ccco4)c(C)nc32)cc1, which Potency is on record?
Its Potency is inconclusive: 31.6 µM [inhibitor, partial curve].

How did the Potency turn out when NC(=O)CSC1=Nc2ccccc2C2=NC(c3ccccc3)C(=O)N12 (stereo not drawn) was run?
The Potency was inconclusive: 28.2 µM [inhibitor, partial curve].

For O=Cc1ccc(-n2cc(C=O)c3ccccc32)cc1, which Potency is on record?
The Potency was inconclusive: 25.1 µM [inhibitor, single point].

For Fc1ccc(/C=C/c2nnc(-c3cccs3)o2)cc1, which Potency is on record?
Its Potency is inconclusive: 28.2 µM [inhibitor, partial curve].

Which Potency does the source give for COc1cc(-c2nc(-c3cccc(C(F)(F)F)c3)no2)cc(OC)c1OC here?
The Potency was inconclusive: 28.2 µM [inhibitor, partial curve].

Which “activity change, negative = inhibition” value does the source give for COc1ccccc1-n1cnc2c(c1=O)c1nc3ccccc3nc1n2-c1ccc(C)cc1 here?
Its value is inactive: -5.19%.

Which “activity change, negative = inhibition” value does the source give for Cc1cc(NC(=O)CC2(CC(=O)O)CCCC2)n(C)n1 here?
Its value is inactive: -2.05%.

Which “activity change, negative = inhibition” value does the source give for COc1ccc(O)c(-c2cc(-c3ccccc3[N+](=O)[O-])[nH]n2)c1 here?
Its value is inactive: -2.31%.
